Results taken from the supplement of paper PMC3334620.
Over roughly 33,000 sequences, “E-score (-0.5 to 0.5)” has its median near -0.012; the highest 2% begin near 0.27. The list shows a part of the results.

target: T1, Vhr1 (UniProt P40522); assay: PBM E-score (8-mer binding enrichment) (E-score (-0.5 to 0.5)); higher = stronger / more preferred TF binding; most listed sequences are background and not binding sites; settings: protein concentration: 200 nM; construct: GST-full length
T1 sequence: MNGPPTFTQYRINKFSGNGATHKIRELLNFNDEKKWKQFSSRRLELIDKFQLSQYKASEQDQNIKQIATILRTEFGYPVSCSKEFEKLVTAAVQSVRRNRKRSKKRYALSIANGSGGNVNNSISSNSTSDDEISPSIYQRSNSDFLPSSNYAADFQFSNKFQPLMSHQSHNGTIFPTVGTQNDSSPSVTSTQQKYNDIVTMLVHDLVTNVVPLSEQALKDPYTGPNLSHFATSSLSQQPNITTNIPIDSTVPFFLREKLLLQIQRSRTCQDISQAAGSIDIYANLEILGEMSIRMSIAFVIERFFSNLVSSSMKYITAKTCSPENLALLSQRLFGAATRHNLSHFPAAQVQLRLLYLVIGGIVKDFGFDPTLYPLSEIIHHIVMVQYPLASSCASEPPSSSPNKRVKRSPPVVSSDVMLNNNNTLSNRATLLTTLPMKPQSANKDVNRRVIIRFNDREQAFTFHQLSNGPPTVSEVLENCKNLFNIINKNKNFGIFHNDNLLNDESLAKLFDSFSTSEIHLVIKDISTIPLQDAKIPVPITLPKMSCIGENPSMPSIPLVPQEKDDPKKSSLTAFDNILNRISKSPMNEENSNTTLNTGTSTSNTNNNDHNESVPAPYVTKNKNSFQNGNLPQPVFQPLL
How it was run: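 Universal all-10-mer Agilent arrays, double-stranded by primer extension on fresh or once-stripped slides, were probed with about 100-200 nM GST-tagged yeast transcription factors made by PURExpress. Fluorescent anti-GST detected bound protein, and masliner normalised the scans. E-scores from the Universal PBM Analysis Suite were given to each ungapped eight-base word pooled with its reverse complement.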

Sequence	PBM E-score
CACCAGTA	0.0813
ATTATAAA	-0.136
CCTAGCGA	-0.215
CGGTTAAA	-0.149
ACTGCATC	0.211
GAGGTTGA	-0.131
TTGAGCAA	-0.0517
GCAGAGAC	-0.143
GAGTACGC	-0.118
CAGACCAC	0.129
TACCGAGA	-0.0376
AAGCCCCG	-0.0583
AATTTGAC	-0.0801
GACTCAGA	0.308
ACGATAAC	0.144
ACTACACT	0.211
ATCGCTCG	0.0732
ACTGGAAC	-0.0796
TTTATAAA	-0.0811
AGTCGATG	0.149
AAGCCAGT	-0.12
ATGAGGTG	-0.0279
TGGACACA	0.0645
GCAGGGTA	-0.0897
AATCCCTG	0.0135

Sequence	PBM E-score
AGCGTTGA	-0.0365
GACGGTGC	-0.0439
GTGGCCAC	0.185
CGATGATC	0.17
ATGTCACG	0.125
ACTCGCGG	0.209
AGGGAGGC	-0.122
AAGACGAG	-0.124
GAGGCAAA	0.0323
CTTTTCGA	-0.183
GTATCGAA	0.0589
CGAACAAA	0.0402
TATTCGCA	0.0845
CCATATGA	0.176
ATAGAGGC	-0.207
ATTCAGGA	0.102
CTTCACGA	-0.205
AGTATCGC	0.0154
AAAGAACT	-0.173
GCATGGTA	0.047
GCACGCCA	-0.138
ATTGTTCG	0.0472
CAACCGAG	0.178
GCTCGAAA	-0.0692
GCGGCGCC	0.174

Sequence	PBM E-score
TCTCTAAA	-0.242
GACCTCAA	-0.0204
CAGCGAAG	0.00147
CCCACCGC	0.14
ATCTCCTG	0.0894
CTGGACAA	-0.146
CAACCCAG	0.0684
ACCACCGA	0.0503
CGACAAAA	-0.0623
CCTCCTGC	-0.139
AACCTTGG	-0.274
CGCATTAA	-0.0276
CCCTCACA	-0.0302
ACCATCTC	0.173
AGTGCGAT	0.125
TCTGCCCA	-0.179
GGTTTTGA	-0.0155
GGTTCAGA	-0.0858
AGAGGACC	-0.0963
CTTTTGGA	-0.219
CCGATACC	-0.088
TCCAGAGA	0.0238
TCAATAAA	-0.173
CAATGGGG	-0.0602
CTGGGGGA	-0.114

Sequence	PBM E-score
CATAGTTC	0.147
CGAACACC	0.0727
AGGAGGAC	-0.208
CCGCTCTA	-0.0369
ATTGGGCC	-0.049
CCCAGCGG	-0.0619
CGGCATTA	0.0768
GCATGGCC	-0.0804
GCCTTCCC	-0.24
TCGTACGA	-0.0873
ATATAATC	-0.128
AACCACGG	0.101
ACTAAGTC	0.138
TATAAAGA	-0.214
CCCGGCCC	0.0496
ACTATCGC	0.0315
CTTCTTAC	-0.221
AAAGCTGT	-0.103
GCCAATAA	0.0719
CAGCCCAC	-0.0271
ACTCTCGA	0.00975
AGCTAGGG	-0.0759
ACAGTCCG	0.00215
ACCCTATG	0.136
CGTATTAA	-0.0144

Sequence	PBM E-score
GCGGGGCC	0.101
AACAAAAT	-0.0572
CAGGCTCC	0.0755
AATGAACG	-0.0965
AATACGAG	-0.00968
AACCTACC	0.105
AACCATCC	0.229
CTCATCAA	-0.0861
CGATAGCA	-0.00614
ATGATCTA	0.176
AATCATCC	0.405
AAACCGTA	-0.165
ATTCGCTA	-0.143
AGGGCGCC	-0.0248
CATACGGC	0.143
GATATAGA	0.0295
ACCAGTAC	0.0612
ACTAGGCT	0.154
CACGCACC	-0.035
AGGCTAGA	-0.154
CCTTCTAG	-0.342
CTGTCTGC	-0.214
CTCAACCA	0.059
CGACCCCA	0.079
ACGGTTGG	-0.0958

Sequence	PBM E-score
AGGTCACT	-0.135
ACGGTAGG	-0.0389
AGCGAACC	0.00911
CTGGGTAC	0.196
AGTGGAAC	-0.0701
CAGGCTTA	-0.118
TCCGTAGA	-0.253
TAAACCTA	0.0156
CGGTGCTC	0.135
ATAATACG	0.0457
AACGGAAA	-0.17
CAGGCCCG	-0.0654
CACTCACG	0.238
ACATACTG	0.236
CTGATACC	-0.0358
AGAAATCG	-0.209
GACTCATA	0.388
CGGCGCTC	-0.173
TCGCGTAA	0.0342
AGTCTCGA	0.0864
CTTCTCCC	-0.159
GTCCAGCA	-0.0682
AGTTAAGC	-0.166
ACTAACAC	0.246
AAGTCTCA	-0.14

Sequence	PBM E-score
CTAATGAA	0.0817
AAAGATAG	-0.188
AACGCATC	-0.124
CCTAATCG	0.0221
CTTTTGAA	-0.293
CTTGGAGA	-0.0158
CGCGAAAA	-0.064
ATATTATA	0.058
ATACACCG	-0.0231
ACGGAAGA	-0.0235
CTGGTCAA	-0.145
CTAGACCA	-0.0735
CGGCCTGA	-0.258
AAGCGGCC	-0.148
ATTTAGAA	-0.171
CCGTACCG	0.00374
GGCACAAA	-0.125
GACAAAGA	-0.12
CAGTGTAA	0.16
CACGAGCG	0.0391
GGACCCAC	0.196
AACCATTA	0.249
AGGAGCTC	-0.274
CCGGTCTA	-0.0435
GAGGATGA	0.145

Sequence	PBM E-score
AGACCATC	0.0276
CAGGTCTA	0.0507
CACTCCTC	0.183
CTACGACC	0.12
AGCTCCGG	0.102
GAGATTGC	-0.0236
AGCGTAGC	-0.142
AATAGCGG	-0.0726
GAGTATTA	0.117
CCTTCGTC	-0.164
CTCCGCCC	0.0697
GCAGAGTA	-0.0474
CAAACGGC	-0.0569
ATTGAAGG	-0.13
CCTGTGAC	0.188
AAGCTGAC	-0.0106
CCGGCATC	0.027
AAATGCCG	-0.128
CCGAACCA	0.0572
TCGGAGCA	-0.176
AGCCCGCA	-0.0483
ACCTGAGA	-0.109
CCCTCTAC	-0.113
AATGATTC	0.406
ACCGACCC	0.0413

Sequence	PBM E-score
GAGCCCGA	0.129
ACCGCAGT	0.0981
AAAAGGAC	-0.198
AACCACTG	0.161
CCCTATGC	-0.00502
AGAAAGCG	-0.187
ACTTCGGA	-0.00447
CCTAAGGA	-0.191
AGGCGACT	0.206
CAACACCG	0.0548
CTATAGTC	0.0579
ACTTACAA	-0.0175
AAGAGTAA	-0.0581
ATTCCTCG	0.0976
AACCGTAT	-0.13
ACTCCCCA	0.106
AGTGTCTA	0.0048
CCGCCCCA	0.349
CGTAATCA	0.273
CTTACTCC	0.0868
ATGGGTAA	0.269
GTGGCAAC	-0.161
CGGATCCG	0.0101
GGCCCTAA	-0.196
TATAGGGA	0.0239

Sequence	PBM E-score
CAGAGTCA	0.344
TATTCCCA	-0.181
AGATGGTC	-0.0726
GAGACTAA	-0.00777
CGGGCAGC	0.0935
CACCCGCG	0.218
AGCCGTTA	-0.199
GCGGGTCA	0.308
CTAGTCAG	0.247
GCCGCGGA	0.117
CTTACAAG	-0.238
AAATTTGA	-0.111
ACATACCT	0.089
GCGATTCC	0.227
GTACTGAC	0.214
CGATCTTC	-0.0711
AACTACGG	-0.192
CCCCGTTA	-0.095
AACGCTCT	-0.167
AGGAGGTC	-0.125
CAGCCCAG	0.0143
CTAAGCAC	0.0457
GACTAGGC	0.0856
CCCAATGA	0.112
AAGGTGCT	-0.198

Sequence	PBM E-score
TCGAAAGA	-0.109
GGATCTAC	-0.068
ATACAAGA	0.107
AACTGACC	-0.103
CGATGTAA	0.0662
CTCCATCC	-0.162
GGTATGGA	-0.0842
AACAACCA	0.137
ACGCGTAG	-0.0237
CATCACGG	-0.053
GCAGCCGC	-0.0178
CTAAATTA	0.0589
AGTAGCGC	0.0112
GCTTGGAC	-0.218
GGTCGCCA	-0.0181
AAAACTTG	-0.0981
CACGGGAC	0.00745
GCCCAAGC	-0.0541
AATGCGAC	0.201
CTCCCTTA	-0.0992
CCCATGTC	0.0407
CCATCCTA	0.119
CGGGCCAC	0.0818
TAGAATCA	0.185
ACTAGTGA	-0.0122

Sequence	PBM E-score
ATTAACCC	0.175
CGGCGGTC	-0.0157
CCTCACTC	0.0373
AGGCTAAC	-0.107
GTGTTGTA	0.0384
CAACACCC	0.106
CTCGCCCC	0.0459
TAGTAAGA	-0.104
ATAATAAG	0.032
CGCGGGAA	0.105
GTGAGTTA	0.137
AGTGATGA	0.207
CTCGCAAG	0.149
AGTATTAA	0.164
CAACTGAA	0.0597
ATGGGGCA	-0.103
GGAGATCA	0.106
ACCCAGGC	0.302
CCGCCGAA	0.076
AACAAGTC	0.0369
AAGACATA	0.0526
CTCGGGGA	-0.00611
CTCCAGAA	-0.14
ACATCTAT	0.0759
GGACATAA	-0.126

Sequence	PBM E-score
AGCACCCC	-0.078
AATTGGTG	0.157
GCGTCCAC	-0.212
ACGGCGTC	-0.0609
CGTATAAC	0.0607
GCTTAAAA	-0.0463
CATTTCCA	0.0774
ATACTGCC	0.0148
AATGAGCG	-0.0139
CGATATCC	0.0969
ATAGCTTG	-0.146
ACGCTGAT	0.155
AACCGGCT	0.07
GTAAAATA	-0.174
CAGTGTCC	0.0431
CCACCTTA	-0.0749
GTCAGGAA	0.0818
AACGACCA	-0.0478
GGGGGCTA	-0.322
AGAACTGG	0.00338
GGAGGACA	-0.155
ATGCTTCA	-0.231
AATGGCAT	0.146
AATACTGA	-0.021
AAGCGACC	0.0732

Sequence	PBM E-score
TACAGGGA	-0.0848
CGTCGGAC	-0.0628
TAAGACCA	0.0161
ACATACGG	-0.123
CTCCACCA	0.0478
GGTCTAAA	-0.0427
ACTTTCTA	-0.231
GAAACAAC	-0.164
CGAGCTGC	0.126
GGACCAGA	-0.123
CGAGTTGA	0.0202
GCACGGAA	0.0156
GCGCATCA	0.0373
AAAAGGGC	-0.0413
AGGTAGAA	-0.0422
CAGCTTAC	0.00232
ATCGTACC	0.0367
AAGTCCAA	-0.304
CACGCAAA	0.0383
